Assay results from the supplement of paper PMC3334620.
The full ranking holds about 33,000 sequences; the median of “E-score (-0.5 to 0.5)” is about -0.012, and the highest 2% start at about 0.29. Some of the results follow.

target: T1, Ybr033w (UniProt P38073); assay: PBM E-score (8-mer binding enrichment) (E-score (-0.5 to 0.5)); higher = stronger / more preferred TF binding; most listed sequences are background and not binding sites; details: protein concentration: 200 nM; construct: GST-full length
T1 sequence: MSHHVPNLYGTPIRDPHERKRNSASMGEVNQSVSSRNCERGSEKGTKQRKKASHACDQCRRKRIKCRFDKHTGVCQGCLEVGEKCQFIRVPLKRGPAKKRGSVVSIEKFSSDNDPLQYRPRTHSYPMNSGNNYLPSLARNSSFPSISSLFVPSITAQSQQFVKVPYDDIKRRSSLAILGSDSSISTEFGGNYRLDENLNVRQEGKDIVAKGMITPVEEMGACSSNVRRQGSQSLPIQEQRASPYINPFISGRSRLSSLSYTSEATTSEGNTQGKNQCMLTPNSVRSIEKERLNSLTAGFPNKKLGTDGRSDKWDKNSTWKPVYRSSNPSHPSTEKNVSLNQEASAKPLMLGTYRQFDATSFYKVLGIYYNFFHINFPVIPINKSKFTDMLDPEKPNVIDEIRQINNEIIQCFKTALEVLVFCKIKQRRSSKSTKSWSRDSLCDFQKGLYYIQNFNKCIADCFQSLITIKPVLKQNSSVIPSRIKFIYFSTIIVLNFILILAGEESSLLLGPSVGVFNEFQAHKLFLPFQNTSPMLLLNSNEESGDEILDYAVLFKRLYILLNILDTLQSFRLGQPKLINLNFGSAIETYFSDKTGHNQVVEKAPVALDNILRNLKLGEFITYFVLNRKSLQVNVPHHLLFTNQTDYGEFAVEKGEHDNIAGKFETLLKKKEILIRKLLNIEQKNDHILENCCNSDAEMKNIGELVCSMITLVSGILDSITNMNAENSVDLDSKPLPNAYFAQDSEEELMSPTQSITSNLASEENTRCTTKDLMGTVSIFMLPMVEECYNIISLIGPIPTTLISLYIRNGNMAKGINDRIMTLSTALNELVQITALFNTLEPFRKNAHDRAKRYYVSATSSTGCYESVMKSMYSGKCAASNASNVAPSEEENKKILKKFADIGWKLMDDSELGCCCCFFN
Method in brief: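 Masliner-normalised scans of fluorescent anti-GST signal were the basis for scoring. That signal came from GST-tagged yeast transcription factors applied at about 100-200 nM to double-stranded universal all-10-mer Agilent arrays on fresh or once-stripped slides. Each ungapped eight-base word, pooled with its reverse complement, received an E-score from the Universal PBM Analysis Suite.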

Going from ATGACGAA to GATTCTAC, the “PBM E-score” value falls from 0.2 to -0.0106.

Going from GTGATTAA to AAAAGTCG, the “PBM E-score” value falls from 0.291 to 0.00288.

First: ACGGAATC
Second: TCGAGAGA
The “PBM E-score” value of the first is higher: 0.113 for the first, -0.0808 for the second.

Compared with GCACGACA, CCCGGTTA is lower in “PBM E-score” value: -0.251 for the first, -0.354 for the second.

First: ACCCTGTG
Second: ATACTCCA
The “PBM E-score” value of the first is lower: -0.0604 for the first, 0.00821 for the second.

Going from GCAGCCAC to CGAACTCA, the “PBM E-score” value falls from -0.0203 to -0.124.

Going from CGGCCGCA to AAACCAGT, the “PBM E-score” value rises from -0.208 to 0.079.

Compared with CAATCTCA, AAACGCGT is lower in “PBM E-score” value: 0.0287 for the first, 0.00157 for the second.

Going from GCGGTTCC to AACTCCAT, the “PBM E-score” value rises from -0.0683 to 0.166.

Compared with GATGTCGA, CTAAGCCC is lower in “PBM E-score” value: -0.0381 for the first, -0.289 for the second.

Going from TAGGAGCA to AGTTTGCG, the “PBM E-score” value rises from -0.212 to -0.0516.

First: AATATTTC
Second: CGATCGTA
The “PBM E-score” value of the first is higher: 0.34 for the first, -0.088 for the second.

Compared with AAGAATGG, CTGCCCTA is lower in “PBM E-score” value: 0.131 for the first, -0.129 for the second.

First: AACTGGCG
Second: AAGGTAAT
The “PBM E-score” value of the first is lower: 0.0107 for the first, 0.139 for the second.

First: CTACCTAG
Second: CGAGGGAC
The “PBM E-score” value of the first is higher: -0.243 for the first, -0.406 for the second.

Going from TCCTATCA to ATTCTATA, the “PBM E-score” value rises from -0.0135 to 0.207.

Compared with ATACGCTG, GGACGAGA is lower in “PBM E-score” value: -0.0162 for the first, -0.2 for the second.

Going from CTAAGGTC to CATGGGCG, the “PBM E-score” value rises from -0.148 to -0.0951.

Going from CTACAAGC to ACAAAATG, the “PBM E-score” value rises from -0.0775 to 0.259.

Going from CTCGTTCC to GGTAGCGA, the “PBM E-score” value rises from -0.158 to 0.0182.

Going from ATCATGTA to GATACCGC, the “PBM E-score” value falls from 0.173 to -0.0911.

Going from ATTCGTAA to CGAGACCA, the “PBM E-score” value falls from 0.222 to -0.0425.

Going from CGTCACAA to CAGTTAGA, the “PBM E-score” value rises from -0.0784 to 0.0268.

First: AAGAACTC
Second: GCCTGAGA
The “PBM E-score” value of the first is higher: 0.167 for the first, -0.128 for the second.

Going from GCAAGCAC to TATACACA, the “PBM E-score” value rises from -0.186 to 0.249.

Compared with ATGTCATG, ATGACACA is higher in “PBM E-score” value: 0.0437 for the first, 0.167 for the second.

First: AATTGATA
Second: CTTCCTCA
The “PBM E-score” value of the first is higher: 0.255 for the first, -0.172 for the second.

Compared with CCCCTCTC, ATGATCGC is higher in “PBM E-score” value: -0.288 for the first, -0.0782 for the second.

Compared with AGCGGGAA, AATTGACG is lower in “PBM E-score” value: 0.0835 for the first, -0.0634 for the second.

Going from CGGATACA to CCTTAACC, the “PBM E-score” value falls from 0.0961 to 0.00326.

Compared with CCAGAGCA, CATGGCCA is lower in “PBM E-score” value: -0.0441 for the first, -0.223 for the second.

First: GATTAGGC
Second: ACGATTAC
The “PBM E-score” value of the first is lower: -0.0308 for the first, -0.03 for the second.

Compared with CAGTACCA, AGATCCTG is lower in “PBM E-score” value: 0.0107 for the first, -0.0115 for the second.

Compared with CAGTGGAA, GTTACGCA is lower in “PBM E-score” value: -0.0743 for the first, -0.125 for the second.

First: CCGCATCA
Second: CTATACGC
The “PBM E-score” value of the first is lower: -0.0372 for the first, 0.00539 for the second.

Going from CTGCTTCC to AGAAGTTC, the “PBM E-score” value rises from -0.15 to 0.0165.

Compared with CAGTCCCA, AGCCTGGG is higher in “PBM E-score” value: -0.248 for the first, -0.157 for the second.

Compared with CAACCTAG, AATGCTCC is higher in “PBM E-score” value: -0.0189 for the first, -0.00557 for the second.

Going from ATAATGGC to GTCGAAAA, the “PBM E-score” value rises from 0.0328 to 0.122.

First: ATCCGGGG
Second: TAAAACTA
The “PBM E-score” value of the first is lower: 0.181 for the first, 0.195 for the second.

First: AATTAACA
Second: TGGCGACA
The “PBM E-score” value of the first is higher: 0.295 for the first, -0.039 for the second.

Compared with CACTGCCA, AAGGTGTA is higher in “PBM E-score” value: 0.0567 for the first, 0.104 for the second.

First: ACTGGCTG
Second: ACAACTCC
The “PBM E-score” value of the first is lower: -0.182 for the first, -0.0224 for the second.

First: GCGACTAC
Second: CCATGCAA
The “PBM E-score” value of the first is lower: -0.114 for the first, 0.13 for the second.

Going from AAAGCATT to AACCCAGT, the “PBM E-score” value falls from 0.0559 to -0.102.

Going from CGATCTAA to GGGGGACC, the “PBM E-score” value falls from 0.0946 to -0.384.

Compared with CAAATCCG, CAATGGTC is higher in “PBM E-score” value: 0.0419 for the first, 0.169 for the second.

Going from TCAGTGCA to AAAGGTTC, the “PBM E-score” value rises from -0.0189 to 0.0654.

First: AGAATACG
Second: CACAACAG
The “PBM E-score” value of the first is higher: 0.0732 for the first, 0.0436 for the second.

First: CTTGGTCC
Second: AAGGGAAG
The “PBM E-score” value of the first is lower: -0.1 for the first, 0.0133 for the second.

First: AACCGGGA
Second: CAGCAGGA
The “PBM E-score” value of the first is lower: -0.132 for the first, -0.079 for the second.

First: GAACACAC
Second: ATCGAGCC
The “PBM E-score” value of the first is higher: 0.058 for the first, 0.0208 for the second.

First: CGGCCCCA
Second: GCTTAACA
The “PBM E-score” value of the first is lower: -0.253 for the first, 0.0687 for the second.

Going from CATGCATA to TGAAGGCA, the “PBM E-score” value falls from 0.0541 to 0.00214.

Going from CTCACATA to TAGTGGAA, the “PBM E-score” value rises from -0.115 to -0.0197.

Going from TCGGTGCA to CCGGCAGA, the “PBM E-score” value falls from -0.103 to -0.144.

Compared with CGGCGATC, GCGCCGGA is higher in “PBM E-score” value: -0.113 for the first, -0.11 for the second.

Going from ACGCTTAT to GACCAGGC, the “PBM E-score” value falls from -0.105 to -0.164.

Going from AGAGACAG to GTGCAGAA, the “PBM E-score” value rises from -0.067 to 0.00483.

First: AGATTAGC
Second: CTAGGATC
The “PBM E-score” value of the first is higher: -0.0299 for the first, -0.146 for the second.

Compared with ATTTGGAA, TAATTCCA is higher in “PBM E-score” value: 0.169 for the first, 0.257 for the second.

Compared with CTTGCGAC, AAGGTCAA is higher in “PBM E-score” value: -0.204 for the first, -0.0287 for the second.

Compared with AACTCCAC, GCAGAGCA is lower in “PBM E-score” value: 0.111 for the first, -0.16 for the second.

First: ATAGGGTA
Second: GAGTCCTA
The “PBM E-score” value of the first is lower: -0.0147 for the first, 0.0305 for the second.

Going from AGAATGAT to CAATAGTA, the “PBM E-score” value rises from 0.167 to 0.168.

Compared with AAGTACTC, GTTGTCCA is higher in “PBM E-score” value: -0.0708 for the first, 0.00858 for the second.

Going from GTTCGTAA to AAATCCAG, the “PBM E-score” value rises from 0.0833 to 0.218.

First: AGCTGTGA
Second: CTTTAGTA
The “PBM E-score” value of the first is lower: 0.00067 for the first, 0.0159 for the second.

Compared with TAGGTATA, CCGTATTA is lower in “PBM E-score” value: 0.169 for the first, 0.13 for the second.

Compared with GAATGGAC, AAATATGC is higher in “PBM E-score” value: -0.0608 for the first, 0.237 for the second.

Compared with CCAACCGC, AAATCCCA is higher in “PBM E-score” value: 0.0131 for the first, 0.0991 for the second.

First: TCCGCCCA
Second: GGTGGCTA
The “PBM E-score” value of the first is higher: -0.00602 for the first, -0.0428 for the second.

Compared with AAGATTAT, GATTATTA is higher in “PBM E-score” value: 0.247 for the first, 0.298 for the second.

Going from AATTTAGA to TAATACAA, the “PBM E-score” value falls from 0.211 to 0.202.

Compared with CCGGGTCC, TTCTACAA is higher in “PBM E-score” value: -0.234 for the first, 0.207 for the second.

First: GTTGCAGA
Second: TCCCTTAA
The “PBM E-score” value of the first is lower: -0.0954 for the first, 0.0737 for the second.

Going from CATAGGCA to CGCCTAGA, the “PBM E-score” value rises from -0.194 to -0.0891.

First: GGTCCTAA
Second: TCCCCGAA
The “PBM E-score” value of the first is lower: -0.148 for the first, 0.0432 for the second.

Going from GGGAAGTA to CAATCGCA, the “PBM E-score” value rises from -0.0247 to 0.0591.

Compared with ACGACTCA, CGCCCACG is lower in “PBM E-score” value: -0.0223 for the first, -0.163 for the second.

Going from CCGCTGTA to GACGCATC, the “PBM E-score” value falls from -0.0199 to -0.0923.

First: TTAATTAA
Second: ATGGGCCG
The “PBM E-score” value of the first is higher: 0.241 for the first, -0.165 for the second.

First: GTCACTTA
Second: GGATCTGA
The “PBM E-score” value of the first is higher: 0.236 for the first, -0.0531 for the second.

Going from ACCCTGAC to ATTCGTCA, the “PBM E-score” value rises from -0.23 to 0.0697.

First: AGTGTGCG
Second: CCTTAGGC
The “PBM E-score” value of the first is higher: -0.0768 for the first, -0.258 for the second.

Going from AGTATCTA to ACGATTCC, the “PBM E-score” value falls from 0.213 to 0.0523.
